The list shows a part of the results.

One experiment has as its system HepG2. As to the kind of experiment: cytotoxicity call (relative viability < 0.9). The conditions noted are these: 10 µM.
On to `Cc1ccc(S(=O)(=O)Nc2ccc3c(c2)C(=O)N([C@@H](C)CO)C[C@@H](C)[C@@H](CN(C)Cc2ccc(C(=O)O)cc2)OCCCC[C@H](C)O3)cc1`, for which the cytotoxicity call is “inactive”.

Take `C[C@H](CO)N1C[C@H](C)[C@H](CN(C)C)Oc2cc(C#CCN(C)C)ccc2S1(=O)=O`: the cytotoxicity call is “inactive”. Still for that read-out and setting: with `Nc1nc(F)nc2c1ncn2[C@@H]1O[C@H](COP(=O)(O)O)[C@@H](O)[C@@H]1O` the entry was “inactive”; with `COc1ccc(S(=O)(=O)Nc2ccc3c(c2)CC(=O)N([C@H](C)CO)C[C@H](C)[C@@H](CN(C)S(=O)(=O)c2ccccc2)O3)cc1`, “inactive”; with `C[C@H]1CN([C@@H](C)CO)S(=O)(=O)c2ccc(C#Cc3ccccc3)cc2O[C@H]1CN(C)S(=O)(=O)c1ccccc1F`, “inactive”. Turning to `C[C@@H]1CN([C@@H](C)CO)C(=O)c2cc(NC(=O)CCC(F)(F)F)ccc2O[C@@H](C)CCCCO[C@@H]1CN(C)S(=O)(=O)c1ccc(Cl)cc1`, the cytotoxicity call was “inactive”. In the case of `C[C@@H]1CN([C@@H](C)CO)C(=O)c2cc(NC(=O)Nc3ccc(C(F)(F)F)cc3)ccc2O[C@@H](C)CCCCO[C@@H]1CN(C)S(=O)(=O)c1cccs1`, the cytotoxicity call is “inactive”.

For `CC(=O)C1CCC2C3CC(C)C4=CC(=O)CCC4(C)C3C(O)CC12C` (centres undefined), the cytotoxicity call is “inactive”. Same read-out and setting: the same measure for `CCCCCCc1nc(-c2ccc(-c3ccc(Cl)c(Cl)c3)o2)cc2c1[Si](C(C)C)(C(C)C)OC2`: “inactive”.

The test system of a further experiment is S. aureus RN4220. Kind of experiment: growth inhibition call (relative growth <= 0.2). To be noted: 50 µM.
For the molecule `CC(C)NC(=O)Nc1cccc2c1O[C@H](CN(C)S(=O)(=O)c1cccs1)[C@@H](C)CN([C@H](C)CO)C2=O`, the growth inhibition call was “inactive”. For `CCS(=O)(=O)CCn1c([N+](=O)[O-])cnc1C`, the growth inhibition call was “inactive”.

Turning to `C[C@H](CO)N1C[C@H](C)[C@@H](CN(C)C(=O)Nc2ccccc2C(F)(F)F)OCc2ccccc2-c2c(n(C)c3ccccc23)C1=O`, the growth inhibition call was “inactive”. On to `Cc1noc(C)c1S(=O)(=O)N(C)C[C@@H]1Oc2ccc(NS(C)(=O)=O)cc2C(=O)N([C@@H](C)CO)C[C@@H]1C`, for which the growth inhibition call is “inactive”. For the molecule `CC1=NC[C@H](O)[C@@H](C(=O)O)N1`, the growth inhibition call was “inactive”. With `C[C@H](CO)N1C[C@H](C)[C@@H](CN(C)S(=O)(=O)c2ccc(-n3cccn3)cc2)OCc2cnnn2CCCC1=O`, the growth inhibition call is “inactive”. `Nc1nc(N)c2nc(CNc3ccc(C(=O)NC(CCC(=O)O)C(=O)O)cc3)cnc2n1` (centres undefined): the growth inhibition call was “inactive”.

For the molecule `O=c1[nH]c2ccsc2c(=O)n1CCO`, the growth inhibition call is “inactive”. For the molecule `C[C@@H]1CCCCO[C@@H](CN(C)C(=O)Nc2cccc3ccccc23)[C@H](C)CN([C@H](C)CO)C(=O)c2cc(NS(=O)(=O)c3cn(C)cn3)ccc2O1`, the growth inhibition call is “inactive”.

As for `CCOc1oc(C(=O)NC2CCCCC2)c(-c2ccc(Cl)cc2)c1S(=O)(=O)c1ccc(Cl)cc1`, the growth inhibition call is “inactive”. As for `C[C@H](CO)N1C[C@H](C)[C@H](CN(C)C(=O)Nc2ccccc2)Oc2ccc(NC(=O)CCN3CCOCC3)cc2C1=O`, the growth inhibition call was “inactive”. As to `C[C@H](CO)N1C[C@H](C)[C@H](CN(C)C(=O)Nc2ccc(F)cc2)Oc2ccc(NC(=O)C3CC3)cc2CC1=O`, the growth inhibition call was “inactive”. With `C[C@H]1CN([C@@H](C)CO)C(=O)Cc2cc(NC(=O)c3ccncc3)ccc2O[C@@H]1CN(C)S(=O)(=O)c1ccc(Cl)cc1`, the growth inhibition call was “inactive”. In the case of `CC(C)NC(=O)Nc1ccc2c(c1)C(=O)N([C@H](C)CO)C[C@H](C)[C@@H](CN(C)S(C)(=O)=O)OCCCC[C@@H](C)O2`, the growth inhibition call was “inactive”.

As to `Cc1noc(C)c1S(=O)(=O)Nc1cccc2c1O[C@@H](CN(C)S(=O)(=O)c1ccc(Cl)cc1)[C@@H](C)CN([C@@H](C)CO)C2=O`, the growth inhibition call is “inactive”. Turning to `CC(C)CC#Cc1cnc2c(c1)C(=O)N([C@H](C)CO)C[C@@H](C)[C@H](CN(C)C(=O)c1ccc3c(c1)OCO3)O2`, the growth inhibition call was “inactive”. As for `Cc1noc(C)c1NC(=O)N(C)C[C@@H]1Oc2c(NC(=O)Nc3cccc4ccccc34)cccc2C(=O)N([C@@H](C)CO)C[C@@H]1C`, the growth inhibition call was “inactive”. On the same count and under the same terms, the same measure for `C=CCC[C@H](Cc1ccc(F)cc1)C(=O)O[C@@H](CNC(=O)[C@@H](CC=C)CC(=O)N[C@@H](CO)Cc1ccccc1)c1ccccc1`: “inactive”; for `O=C(c1cccnc1)N1C[C@@H]2[C@H](c3ccccc31)[C@@H](CO)N2C(=O)CN1CCOCC1`: “inactive”. `C=CCC[C@@H](Cc1ccc(F)cc1)C(=O)OC[C@@H](NC(=O)[C@@H](CC=C)CC(=O)N(CCO)Cc1ccccc1)c1ccccc1`: the growth inhibition call was “inactive”.

Regarding `O.O.OCC1OC(OC2OC(CO)C(O)C(O)C2O)C(O)C(O)C1O` (centres undefined), the growth inhibition call is “inactive”. `C[C@@H]1CN([C@@H](C)CO)C(=O)c2cc(NC(=O)Cc3ccccc3)ccc2O[C@@H]1CN(C)Cc1ccc(Cl)c(Cl)c1`: the growth inhibition call was “inactive”.

Take `C[C@H]1CN([C@@H](C)CO)C(=O)Cc2cc(NC(=O)NC3CCCCC3)ccc2O[C@H]1CN(C)S(=O)(=O)c1cn(C)cn1`: the growth inhibition call is “inactive”.

In the case of `COc1ccc(CN(C)C[C@H]2OCCCC[C@@H](C)Oc3ccc(NC(=O)CCC(F)(F)F)cc3C(=O)N([C@H](C)CO)C[C@H]2C)cc1`, the growth inhibition call is “inactive”. As for `C[C@@H]1CN([C@H](C)CO)C(=O)c2cc(N(C)C)ccc2O[C@H]1CN(C)S(=O)(=O)c1ccc(Cl)cc1`, the growth inhibition call is “inactive”.

Regarding `COCC#Cc1ccc2c(c1)O[C@H](CN(C)C(=O)C1CCOCC1)[C@H](C)CN([C@H](C)CO)S2(=O)=O`, the growth inhibition call is “inactive”. As for `O=C(C[C@H]1CC[C@@H]2[C@H](COC[C@@H](O)CN2S(=O)(=O)c2ccccc2)O1)N[C@@H]1CCN(Cc2ccccc2)C1`, the growth inhibition call was “inactive”.

On to `O=C(C[C@H]1C[C@H]2c3cc(NC(=O)Cc4ccncc4)ccc3O[C@H]2[C@@H](CO)O1)NCCN1CCCCC1`, for which the growth inhibition call is “inactive”. For the molecule `COc1ccc(NC(=O)Nc2ccc3c(c2)C(=O)N([C@H](C)CO)C[C@H](C)[C@@H](CN(C)Cc2ccncc2)OCCCC[C@H](C)O3)cc1`, the growth inhibition call was “inactive”. The same measure, in the same setting: with `C[C@@H]1CN([C@@H](C)CO)C(=O)c2cccc(NC(=O)c3cnccn3)c2O[C@H]1CN(C)S(=O)(=O)c1cccs1` the entry was “inactive”; with `CC(C)(O)c1cn(-c2ccc(-c3cc(F)c(CO)c(S(C)(=O)=O)c3)cc2F)c(C(C)(C)c2c(Cl)cccc2Cl)n1`, “inactive”. On to `Cc1ccc(S(=O)(=O)Nc2ccc3c(c2)C(=O)N([C@@H](C)CO)C[C@@H](C)[C@@H](CN(C)Cc2ccc(C(=O)O)cc2)OCCCC[C@H](C)O3)cc1`, for which the growth inhibition call was “inactive”. For `C[C@H](CO)N1C[C@H](C)[C@H](CN(C)C)Oc2cc(C#CCN(C)C)ccc2S1(=O)=O`, the growth inhibition call is “inactive”. On to `Nc1nc(F)nc2c1ncn2[C@@H]1O[C@H](COP(=O)(O)O)[C@@H](O)[C@@H]1O`, for which the growth inhibition call is “inactive”. With `COc1ccc(S(=O)(=O)Nc2ccc3c(c2)CC(=O)N([C@H](C)CO)C[C@H](C)[C@@H](CN(C)S(=O)(=O)c2ccccc2)O3)cc1`, the growth inhibition call was “inactive”. On to `C[C@H]1CN([C@@H](C)CO)S(=O)(=O)c2ccc(C#Cc3ccccc3)cc2O[C@H]1CN(C)S(=O)(=O)c1ccccc1F`, for which the growth inhibition call is “inactive”. As to `C[C@@H]1CN([C@@H](C)CO)C(=O)c2cc(NC(=O)CCC(F)(F)F)ccc2O[C@@H](C)CCCCO[C@@H]1CN(C)S(=O)(=O)c1ccc(Cl)cc1`, the growth inhibition call is “inactive”. Turning to `C[C@@H]1CN([C@@H](C)CO)C(=O)c2cc(NC(=O)Nc3ccc(C(F)(F)F)cc3)ccc2O[C@@H](C)CCCCO[C@@H]1CN(C)S(=O)(=O)c1cccs1`, the growth inhibition call is “inactive”. Consider `CC(=O)C1CCC2C3CC(C)C4=CC(=O)CCC4(C)C3C(O)CC12C` (centres undefined), for which the growth inhibition call was “inactive”.

`CCCCCCc1nc(-c2ccc(-c3ccc(Cl)c(Cl)c3)o2)cc2c1[Si](C(C)C)(C(C)C)OC2`: the growth inhibition call was “inactive”.

For the origin of these results see the antibiotic and cytotoxicity screens of Wong et al. (2023).
